From publication PMC6776900, “PPM1G forms a PPP‐type phosphatase holoenzyme with B56δ that maintains adherens junction integrity” (EMBO Reports, 2019) come the findings set out here.

The chains behind the UniProt entries cited, without tags or fusion partners.
UniProt P35221: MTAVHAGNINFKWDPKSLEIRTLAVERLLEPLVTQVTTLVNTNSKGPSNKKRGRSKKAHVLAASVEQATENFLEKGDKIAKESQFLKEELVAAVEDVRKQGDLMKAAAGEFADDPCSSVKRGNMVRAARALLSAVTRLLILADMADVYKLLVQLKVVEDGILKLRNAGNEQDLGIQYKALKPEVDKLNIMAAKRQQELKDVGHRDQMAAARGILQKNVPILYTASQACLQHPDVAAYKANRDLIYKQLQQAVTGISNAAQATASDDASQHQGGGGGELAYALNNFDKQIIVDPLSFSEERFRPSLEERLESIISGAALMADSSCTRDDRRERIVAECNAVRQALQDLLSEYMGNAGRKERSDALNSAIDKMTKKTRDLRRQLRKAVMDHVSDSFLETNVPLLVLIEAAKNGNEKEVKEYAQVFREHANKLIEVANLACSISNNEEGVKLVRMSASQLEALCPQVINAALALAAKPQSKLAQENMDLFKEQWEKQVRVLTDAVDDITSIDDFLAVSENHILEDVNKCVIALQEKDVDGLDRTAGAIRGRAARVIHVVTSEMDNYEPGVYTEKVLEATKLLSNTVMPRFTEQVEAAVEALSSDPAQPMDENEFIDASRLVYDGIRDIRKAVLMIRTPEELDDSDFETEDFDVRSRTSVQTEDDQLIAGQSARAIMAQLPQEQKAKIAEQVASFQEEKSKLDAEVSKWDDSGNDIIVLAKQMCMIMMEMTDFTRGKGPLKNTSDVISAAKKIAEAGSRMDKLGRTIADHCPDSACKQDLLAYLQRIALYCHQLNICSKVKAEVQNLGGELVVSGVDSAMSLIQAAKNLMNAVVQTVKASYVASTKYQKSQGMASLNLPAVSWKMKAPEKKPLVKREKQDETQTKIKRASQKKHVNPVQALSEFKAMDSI

Residue numbers refer to the chain shown, from its start. No constants are given. Whether binding was seen depends on the method and setting. Binding seen in cells or lysates may run through a third protein. Some results given as binding are weak or reduced against the parent protein; the word gives no strength.

Experiment [1] has as its target T1, SFB-PPM1G full length (FL) (human) (UniProt O15355).
T1 sequence: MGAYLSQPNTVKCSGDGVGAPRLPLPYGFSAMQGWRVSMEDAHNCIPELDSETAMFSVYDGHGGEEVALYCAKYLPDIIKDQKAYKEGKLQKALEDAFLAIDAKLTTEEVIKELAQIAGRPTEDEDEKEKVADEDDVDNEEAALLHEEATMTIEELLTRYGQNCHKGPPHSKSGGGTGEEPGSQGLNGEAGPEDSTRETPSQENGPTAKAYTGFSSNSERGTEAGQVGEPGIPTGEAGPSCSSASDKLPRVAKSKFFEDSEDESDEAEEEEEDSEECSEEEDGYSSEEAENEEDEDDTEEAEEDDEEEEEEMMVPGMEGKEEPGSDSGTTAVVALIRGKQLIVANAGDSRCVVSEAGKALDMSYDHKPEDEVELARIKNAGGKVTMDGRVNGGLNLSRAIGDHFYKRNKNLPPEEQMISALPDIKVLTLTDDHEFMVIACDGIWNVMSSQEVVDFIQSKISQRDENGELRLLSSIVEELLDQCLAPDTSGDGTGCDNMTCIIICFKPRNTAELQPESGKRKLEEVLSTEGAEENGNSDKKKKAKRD
Kind of experiment: pull-down; SFB-tagged bait expressed in cells (HEK293T/293T where named), lysate in NETN buffer, streptavidin Sepharose beads 1 h at 4°C, endogenous prey detected by Western blot; Fig 3B/3L control shRNA cells; Fig 4C control, PPM1G and B56δ shRNA cells.

Experiment [2] concerns the target T2, SFB-PPM1G G188W (human) (UniProt O15355).
T2 sequence: T1 sequence with G188W
The description is as above.

The target in experiment [3] is T3, SFB-PPM1G A252S (human) (UniProt O15355).
T3 sequence: T1 sequence with A252S
Described as above.

The target in experiment [4] is T1, SFB-PPM1G full length (FL) (human). Kind of experiment: pull-down; B56δ shRNA (B56δ-depleted) cells transfected with SFB-PPM1G or SFB-PPM1G ΔNLS; streptavidin beads; endogenous α-catenin by Western blot.
Experiment [5] has as its target T4, SFB-PPM1G ΔNLS (human) (UniProt O15355).
T4 sequence: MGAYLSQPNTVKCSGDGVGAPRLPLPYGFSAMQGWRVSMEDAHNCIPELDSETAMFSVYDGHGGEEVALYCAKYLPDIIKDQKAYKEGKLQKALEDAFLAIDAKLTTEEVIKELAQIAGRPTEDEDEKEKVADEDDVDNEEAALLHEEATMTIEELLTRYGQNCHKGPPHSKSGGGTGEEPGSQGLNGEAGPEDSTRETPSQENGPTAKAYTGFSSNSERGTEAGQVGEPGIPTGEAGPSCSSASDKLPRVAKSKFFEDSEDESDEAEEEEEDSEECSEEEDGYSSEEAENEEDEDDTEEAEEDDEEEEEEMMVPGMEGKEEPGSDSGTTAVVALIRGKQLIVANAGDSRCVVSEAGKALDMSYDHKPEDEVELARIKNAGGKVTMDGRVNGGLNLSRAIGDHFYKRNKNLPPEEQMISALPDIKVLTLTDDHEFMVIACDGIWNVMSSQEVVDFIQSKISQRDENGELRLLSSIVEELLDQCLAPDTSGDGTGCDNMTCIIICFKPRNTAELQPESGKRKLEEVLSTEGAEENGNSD
Described as above.

Take “endogenous α-catenin (from UniProt P35221 1-906)”: the binding entry was “binds” in experiment [1]; “binds” in experiment [2]; “binds” in experiment [3]; “no binding (condition: B56δ-depleted cells (shRNA))” in experiment [4]; “binds” in experiment [5].
